B1: Peptide A: 161 amino acid CD109-based peptide, SEQ ID NO: 3, bacterially expressed; contains monomeric and dimeric forms; described in U.S. Pat. No. 7,173,002 (protein)
chain: TMENVVHELELYNTGYYLGMFMNSFAVFQECGLWVLTDANLTKDYIDGVYDNAEYAERFMEENEGHIVDIHDFSLGSSPHVRKHFPETWIWLDTNMGSRIYQEFEVTVPDSITSWVATGFVISEDLGLGLTTTPVELQAFQPFFIFLNLPYSVIRGEEFAL
B2: peptide A dimer: dimeric form of peptide A (protein)
chain: B1 chain
B3: peptide A monomer: monomeric form of peptide A (protein)
chain: B1 chain

Key:
[1] = system: TGF-β-induced epithelial-mesenchymal transition (EMT) response in squamous cell carcinoma (A431) cells; experiment: Immunoblot of EMT markers in A431 cells; assay type: cell-based; conditions: 10 nM peptide, 100 pM TGF-b, 24 hrs (FIG. 33)
Method: (FIG. 26A) Immunoblot analysis was carried out using cell lysates of A431 cells following incubation with TGF-β, P16, or scrambled control (P16.2) as indicated to determine expression of proteins involved in the EMT response. (FIG. 26B) Densitometry analysis was subsequently performed using the developed immunoblot to illustrate the relative expression of each protein as a function as P16 concentration as indicated.
A431 cancer cells treated with 10 nM of P16.2 (negative peptide control), P12, P16 or PA in the absence or presence of 100 pM TGF-b, followed by 24 hrs of incubation. Cells lysates were analyzed by Western blot for the expression of Fibronectin (mesenchymal marker), Snail and Twist (EMT markers). Actin expression was used as loading control.

[2] = system: TGF-b induced cellular invasion of squamous cell carcinoma (A431) cells; experiment: Matrigel invasion assay, A431 cells; assay type: cell-based; conditions: 10 nM peptide, 100 pM TGF-b, 24 hrs (FIG. 38)
Method: A431 cancer cells (8000 cells) were seeded on a BioCoat™ Matrigel® Invasion Chamber and treated with 10 nM of P16.2 (negative peptide control), P16 or PA in the absence or presence of 100 pM TGF-b, followed by 24 hrs of incubation. Invasive cells (in the lower chambers) were stained by crystal violet dye, photographed and counted. Representative photos (A) and statistical plots of invasion (B) are shown. The data are shown as mean±SD of the number of invasive cells for three independent experiments. **P<0.01 and ***P<0.001 as compared with controls. […] Squamous cell carcinoma (epidermoid A431 and head and neck FaDu) cells were stimulated with 100 pM of TGF-b1, then treated with 10 nM of peptide 16.2, P16, PA or CD109 for 24 hours. Cells were analysed by Flow cytometry and CD133 positive cell population, which represent cancer stem cell population, were quantified.

[3] = system: TGF-β-induced migration of squamous cell carcinoma (A431) cells; experiment: Scratch (wound closure) migration assay, A431 cells; assay type: cell-based; conditions: 10 nM peptide, 100 pM TGF-b1, 24 hrs (FIG. 42)
Method: FIG. 10A and FIG. 10B illustrate that peptides B, E and X-1 inhibit TGF-β-induced cellular migration of A431 cells in vitro. Results are shown prior to treatment (0 hr, top panels) and after treatment (24 hr, bottom panels) for each of the peptides used. (See FIG. 2 and Table 1 for the amino acid sequence identity of the peptides).
A431 cells were grown to 80-90% confluence and serum-starved overnight. The next day, cells were scratched with a plastic pipette tip (time 0 hour) and then left untreated or treated for 24 hours with 100 pM TGF-β1 alone or in the presence of P16 as indicated. (FIG. 27A) Digital images were captured at 0 h and 24 h using an EVOS XL Core microscope. (FIG. 27B) Micrographs were subsequently quantitated to determine the percentage of the wound area that had closed following 24 hours in the presence or absence of P16, as indicated.
Cells were scratched with a pipette tip and treated without or with 100 pM TGF-b1 alone or in the presence of 10 nM Peptide A or Peptide A1 (C31S mutant). Pictures were taken at 0 and 24 hrs. Peptide A but not Peptide A1 inhibits TGF-b-induced migration in A431 cells. Peptide A contains monomeric and dimeric forms whereas Peptide A1 contains a C31S mutation to prevent intermolecular disulfide bond formation so that it forms monomers only. […]

[4] = Size-exclusion chromatography on Superdex Peptide 10/300GL column; assay type: physicochemical; conditions: peptide dissolved in PBS
Method: Approximately 200 μg of each peptide X (40 amino acids), X-1 (28 amino acids), peptide A (161 amino acids), P11 (11 amino acids), P16 (16 amino acids), P21 (21 amino acids, P16-2 (16 amino acids, scrambled sequence control), X-3 (16 amino acids) and X-4 (11 amino acids) were dissolved in phosphate-buffered saline (PBS) and loaded onto a Superdex Peptide 10/300GL column. The column was eluted with PBS at a flow rate of 0.6 mL/min and eluents were analyzed for peptide content by measuring relative absorbance at a wavelength of 215 nm. (FIGS. 3A and 3B) The data is plotted with relative absorbance (Y-axis) against elution volume (X-axis). […]
FIG. 4 illustrates the standard curve used for size-exclusion chromatography of standard peptides using the Superdex Peptide 10/300 GL column (results provided in FIG. 3). […] The resulting chromatogram (absorbance at 215 nm (in mAU, left Y axis) and conductivity (in mS/cm, right Y axis, in function of volume of elution (in mL)) indicates the elution profiles of the above peptides with high MW peptides eluting in earlier fractions and lower MW peptides eluting in later fractions as expected. The molecular weights of peptides were plotted against elution volume generating a standard curve (not shown). […]

[5] = system: TGF-b-induced phosphorylation of Smad2 in squamous cell carcinoma (A431) cells; experiment: Western blot for phospho-Smad2 in A431 cells; assay type: cell-based; conditions: 10 nM peptide, 100 pM TGF-b, 45 min at 4 C (FIG. 32)
Method: A431 cancer cells treated with 10 nM of P16.2 (negative peptide control), P16 or PA in the absence or presence of 100 pM TGF-b, followed by 45 min of incubation at 4 C. Cells lysates were analyzed by Western blot using an anti-phosphoSmad2 antibody. Actin expression was used as loading control.

[6] = system: TGF-β1-induced Smad3-driven (CAGA12-lux) transcriptional activity; experiment: Luciferase reporter assay in HEK293-(CAGA)12 cells; assay type: cell-based; conditions: 10 nM or 5 nM peptide, 100 pM TGF-β1, 18 hours (FIG. 5)
[7] = system: TGF-β1-induced Smad3-driven (CAGA12-lux) transcriptional activity; experiment: Luciferase reporter assay in HEK293-(CAGA)12 cells; assay type: cell-based; conditions: dimeric or monomeric peptide A, 100 pM TGF-b overnight (FIG. 41)
Method: FIGS. 5A and 5B illustrate that some small molecular weight CD109-based peptides (Peptide A, P28, P21 and […]) inhibit TGF-β1-induced Smad3-driven transcriptional activity. […] Cell lysates were analyzed for luciferase activity and data are expressed as mean±standard deviation of relative light units (RLU). […] Under the conditions tested, peptide A, P28, P21 and P16 inhibited TGF-β1-induced transcriptional (CAGA12-lux) activity.
FIG. 6 illustrates that the small molecular weight CD109-based peptide P16 (but not P16-2, P11 or X-4) inhibit TGF-β1-induced Smad3-driven transcriptional activity. […] Cell lysates were analyzed for luciferase activity and data are expressed as mean±standard deviation of luciferase activity. […]
FIG. 8 illustrates that DMSO treatment enhances the TGF-β inhibitory activity of Peptide X but not P21 or P16. […] Cell lysates were analyzed for luciferase activity and data are expressed as mean±standard deviation of luciferase activity. […]
FIG. 25 is a graph showing the ability of CD109-based peptides to inhibit TGF-β-induced, Smad3-driven transcriptional activity. […] Cell lysates were analyzed for luciferase activity and data are expressed as mean±standard deviation of luciferase activity. […]

Molecule | inhibition of TGF-b induced EMT response (Fibronectin, Snail, Twist) [1] | inhibition of TGF-b induced cellular invasion [2] | inhibition of TGF-b1 induced migration in A431 cells [3] | Aggregation? [4] | inhibition of TGF-b-induced phosphorylation of Smad2 [5] | inhibition of TGF-β1-induced CAGA12-lux activity [6] | effect on TGF-b-dependent Smad3 (CAGA12-lux) transcriptional activity [7]
B1 | inhibit | significantly inhibit | inhibits | Not aggregated | inhibit | inhibited | –
B2 | – | – | – | – | – | – | inhibits
B3 | – | – | – | – | – | – | potentiates

From patent publication US11787850B2, “Peptidic TGF-beta antagonists” (priority 2015, dated 2023)
